# Measurements as given in PubChem BioAssay (NCATS).
# The shares of active, inactive and inconclusive entries below differ from those in the screen. For some assays here: Potencies of inconclusive entries are left out as doubtful fits. Active and inactive are the calls of the source. Calls follow the shape of the dose curve; as a rule, active = well fitted curve in the direction sought with a large enough effect; inconclusive = small, poorly fitted or top-dose-only effect, or another doubt; inactive = no such curve, though single readings can be large; an effect the other way counts as inactive or inconclusive.
# Columns and labels:
# [1] = P-glycoprotein substrates identified in KB-3-1 adenocarcinoma cell line, qHTS therapeutic library screen (AID 1346986);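 also: potency is for cytotoxicity meaning loss of cell viability; nearly all actives have a fitted effect of over 60% in size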
# In short: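 KB-3-1 parental cells and P-gp-overexpressing KB-8-5-11 (colchicine omitted during assay) plated at 500 cells/well, dosed in dose-response, incubated 72 h at 37 degree C. CellTiter-Glo luminescence read; KB-8-5-11 also tested with tariquidar.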
# [2] = P-glycoprotein substrates identified in KB-8-5-11 adenocarcinoma cell line, qHTS therapeutic library screen (AID 1346987); conditions: activity change, negative = cytotoxicity: at 44.5 µM (top of the series); also: nearly all actives have a fitted effect of over 65% in size
# In short: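 KB-8-5-11: colchicine-selected sub-line of KB-3-1 over-expressing P-gp; assay medium lacked colchicine. 72 h drug exposure at 37 degree C, CellTiter-Glo.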
# [3] = qHTS to identify inhibitors of the type 1 interferon - major histocompatibility complex class I in skeletal muscle: primary screen against the NCATS Mechanism Interrogation Plate v5.0 (MIPE) Libary (AID 1347411); conditions: iHSKM cells + IFN-b, HiBiT-tagged MHC-I luminescence, 24 h; activity change, negative = inhibition: at 45.8 µM (top of the series) unless noted; also: nearly all actives have a fitted effect of over 65% in size
# In short: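 Immortalized human C25cl48 myoblasts with HiBit knocked into endogenous HLA-B*08:01 were stimulated with 4.0 ng/ml IFN-beta and exposed to compounds (11-point 1:3 titration, top 46 uM final) for 24 hrs at 37 C; HiBiT lytic luminescence measured.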
# [4] = Primary qHTS for inhibitors of nuclear receptor binding SET domain protein 2 (NSD2) in an isogenic RCH-ACV NSD2 p.E1099K mutant (9B) (AID 1645876); conditions: activity change, negative = viability loss: at 44.9 µM (top of the series) unless noted; also: nearly all actives have a fitted effect of over 70% in size
# [5] = Primary qHTS for inhibitors of nuclear receptor binding SET domain protein 2 (NSD2) in an RCH-ACV wild type WT cells (2C) (AID 1645877); conditions: activity change, negative = cell killing: at 44.9 µM (top of the series) unless noted; also: nearly all actives have a fitted effect of over 70% in size
# [6] = qHTS assay to identify inhibitors of the type 1 interferon - major histocompatibility complex class I in skeletal muscle: Counter screen cell viability and HiBit confirmation (AID 1347412); conditions: iHSKM muscle cells + IFN-b, HiBiT or CellTiter-Glo, 24 h; also: nearly all actives have a fitted effect of over 60% in size; as to activity change, negative = inhibition: % is scaled to controls: 0 for no effect and ±100 for the full control effect
# In short: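 CRISPR HLA-B*08:01-HiBit immortalized human myoblasts (C25cl48) stimulated with 4 ng/ml IFN-beta and compounds (12-point 1:3, top 46 uM final) for 24 h at 37 C. Duplicate plates read by HiBit lytic luminescence or CellTiter Glo ATP.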
# Potency is read from the fitted curve at half-maximal effect; tags tell the direction and shape of the fitted curve.
Compound,Potency [1],Potency [2],Potency [3],Potency [4],Potency [5],Potency ([6]; HiBiT),"activity change, negative = inhibition ([6]; Viability, at 45.9 µM (top of the series))"
Cc1c(C(=O)Nc2ccc(Oc3ccnc4[nH]cc(-c5ccccc5)c34)c(F)c2)c(=O)n(-c2ccc(F)cc2)n1C,"inconclusive [inhibitor, single point]","inconclusive [inhibitor, single point]","inconclusive [inhibitor, full curve]","inconclusive [inhibitor, full curve]",active: 1.86 µM,"inconclusive [inhibitor, full curve]",inactive: -7.02%
Oc1cccc(Nc2ncnc3sc4c(c23)CCCC4)c1,"inconclusive [inhibitor, single point]","inconclusive [inhibitor, partial curve, poor fit]",,active: 9.2 µM,active: 8.2 µM,,
